# Laboratory results as given in the antibiotic and cytotoxicity screens of Wong et al. (2023).
# This is one part of the list.
# Tests used:
# HSkMC = human skeletal muscle cells; assay: cytotoxicity call (relative viability < 0.9); details: 10 µM
# HepG2 = assay: cytotoxicity call (relative viability < 0.9); details: 10 µM
# S. aureus RN4220 = assay: growth inhibition call (relative growth <= 0.2); details: 50 µM
SMILES,cytotoxicity call (HSkMC),cytotoxicity call (HepG2),growth inhibition call (S. aureus RN4220)
C[C@@H]1CN([C@@H](C)CO)C(=O)c2cc(NC(=O)Nc3ccccc3)ccc2O[C@@H](C)CCCCO[C@@H]1CN(C)Cc1ccncc1,inactive,inactive,inactive
C[C@@H]1CCCCO[C@@H](CN(C)C(=O)C2CCCCC2)[C@@H](C)CN([C@H](C)CO)C(=O)c2cc(NC(=O)Nc3ccc4c(c3)OCO4)ccc2O1,inactive,inactive,inactive
CCC(=O)N1C[C@]2(C1)CN([C@@H](CO)c1[nH]c3cc(ccc3c12)OC)S(=O)(=O)C,inactive,inactive,inactive
C[C@H](CO)N1C[C@H](C)[C@H](CN(C)Cc2cccc(C(F)(F)F)c2)OCc2ccccc2-c2c(n(C)c3ccccc23)C1=O,active,inactive,inactive
O=C1NCc2ccccc21,inactive,inactive,inactive
C[C@@H]1CN([C@@H](C)CO)C(=O)c2cc(NS(=O)(=O)c3ccccc3)ccc2O[C@@H](C)CCCCO[C@@H]1CN(C)C(=O)Nc1cccc2ccccc12,inactive,inactive,inactive
C[C@@H]1CN([C@@H](C)CO)S(=O)(=O)c2ccc(C#Cc3ccncc3)cc2O[C@@H]1CN(C)C(=O)c1ccncc1,inactive,inactive,inactive
C[C@H](CO)N1C[C@H](C)[C@@H](CN(C)S(=O)(=O)c2cn(C)cn2)Oc2c(NC(=O)C3CCCCC3)cccc2C1=O,inactive,inactive,inactive
CC(C)NC(=O)N(C)C[C@H]1Oc2ccc(NC(=O)Cn3cnnn3)cc2CC(=O)N([C@H](C)CO)C[C@@H]1C,inactive,inactive,inactive
Cc1noc(C)c1S(=O)(=O)Nc1ccc2c(c1)CC(=O)N([C@@H](C)CO)C[C@@H](C)[C@@H](CN(C)Cc1ccc3c(c1)OCO3)O2,inactive,inactive,inactive
O=C(O)[C@]1(O)C[C@@H](O)[C@@H](O)[C@H](O)C1,inactive,inactive,inactive
COCC(=O)Nc1ccc2c(c1)C(=O)N(C)[C@@H]1CC[C@H](CC(=O)NC3Cc4ccccc4C3)O[C@@H]1CO2,inactive,inactive,inactive
C[C@@H]1CN([C@H](C)CO)C(=O)c2cc(NC(=O)Cc3cn(C)c4ccccc34)ccc2O[C@@H]1CN(C)Cc1ccc(C(=O)Nc2ccccc2N)cc1,inactive,inactive,inactive
C[C@@H]1CN([C@@H](C)CO)C(=O)c2cc(NC(=O)Nc3cccc4ccccc34)ccc2O[C@H]1CN(C)Cc1ccc2c(c1)OCO2,inactive,inactive,inactive
COc1cccc(C(=O)Nc2ccc3c(c2)C(=O)N(C)[C@H]2CC[C@H](CC(=O)NCC(F)(F)F)O[C@@H]2CO3)c1,inactive,inactive,inactive
COc1ccc(S(=O)(=O)Nc2cccc3c2O[C@H](CN(C)C(=O)NC(C)C)[C@@H](C)CN([C@H](C)CO)C3=O)cc1,inactive,inactive,inactive

SMILES,cytotoxicity call (HSkMC),cytotoxicity call (HepG2),growth inhibition call (S. aureus RN4220)
C[C@@H]1CN([C@H](C)CO)C(=O)CCCn2cc(nn2)CO[C@H]1CN(C)C(=O)Nc1ccc(C(C)(C)C)cc1,inactive,inactive,inactive
COc1ccc(S(=O)(=O)N(C)C[C@H]2Oc3c(NC(=O)Nc4cccc5ccccc45)cccc3C(=O)N([C@H](C)CO)C[C@@H]2C)cc1,inactive,active,inactive
COc1ccc(CN(C)C[C@@H]2OCCCC[C@@H](C)Oc3ccc(NC(=O)Nc4ccc(C(F)(F)F)cc4)cc3C(=O)N([C@@H](C)CO)C[C@H]2C)cc1,active,active,inactive
COc1ccc(S(=O)(=O)Nc2ccc3c(c2)C(=O)N([C@@H](C)CO)C[C@@H](C)[C@H](CN(C)S(C)(=O)=O)O3)cc1,inactive,inactive,inactive
C[C@@H]1CN([C@@H](C)CO)C(=O)c2cc(NC(=O)C3CCCCC3)ccc2O[C@@H](C)CCCCO[C@@H]1CN(C)C(=O)NC1CCCCC1,inactive,inactive,inactive
Cc1ccc(S(=O)(=O)N(C)C[C@@H]2Oc3ccc(NC(=O)C4CC4)cc3C(=O)N([C@@H](C)CO)C[C@@H]2C)cc1,inactive,inactive,inactive
Cc1noc(C)c1S(=O)(=O)Nc1ccc2c(c1)CC(=O)N([C@H](C)CO)C[C@H](C)[C@H](CN(C)C(=O)NC1CCCCC1)O2,inactive,inactive,inactive
CCc1nc2ccc(C(=O)Nc3cccc(OCC(=O)N(C)C)c3)cn2c1N(C)Cc1cc2ccccc2s1,inactive,inactive,inactive
COc1ccc(S(=O)(=O)N(C)C[C@H]2Oc3ccc(NS(=O)(=O)c4cccs4)cc3CC(=O)N([C@@H](C)CO)C[C@H]2C)cc1,inactive,inactive,inactive
O=C(C[C@H]1CC[C@@H]2[C@H](COC[C@@H](O)CN2C(=O)Nc2ccc(F)cc2)O1)NCCCN1CCOCC1,inactive,inactive,inactive
CCOC(=O)CN1CCN(C=O)CC1,inactive,active,inactive
C[C@H]1CN([C@@H](C)CO)S(=O)(=O)c2ccc(C#CCN(C)C)cc2O[C@H]1CN(C)Cc1ccccn1,inactive,inactive,inactive
Cc1noc(C)c1NC(=O)N(C)C[C@@H]1Oc2ccc(NS(=O)(=O)c3ccccc3)cc2C(=O)N([C@H](C)CO)C[C@H]1C,inactive,inactive,inactive
C[C@@H]1CCCCO[C@H](CN(C)C(=O)Nc2ccc(C(F)(F)F)cc2)[C@H](C)CN([C@@H](C)CO)C(=O)c2cc(NS(=O)(=O)c3ccc(Cl)cc3)ccc2O1,inactive,inactive,inactive
O=C(NCCCl)N(CCCl)[N+][O-],inactive,inactive,inactive
O=C(C[C@H]1C[C@H]2c3cc(NC(=O)Nc4ccc(C(F)(F)F)cc4)ccc3O[C@H]2[C@@H](CO)O1)NCc1ccc(Cl)cc1,inactive,inactive,inactive
